Measurements from PubChem BioAssay AID504832 (National Center for Advancing Translational Sciences (NCATS), 2011).
Out of some 310,000 compounds screened, about 18,000 (5.8%) were called active. Inconclusive means that the source gave no clear call. Such entries were picked first, then a sample of the others. Calls come from the whole dose curve; as a rule, active = well fitted inhibition curve with a large enough effect; inconclusive = small, poorly fitted or top-dose-only effect, or another doubt; inactive = no such curve, though single readings can be large or run the other way. No potency is given beside an inconclusive call; the fits are too rough.

Assay: Primary qHTS for delayed death inhibitors of the malarial parasite plastid, 48 hour incubation
Conditions: P. falciparum luciferase growth in erythrocytes; series mostly up to 28.7 µM
Outline: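 Erythrocytes infected with P. falciparum carrying an integrated firefly luciferase reporter (2% hematocrit, 0.1% parasitemia final) were exposed to compounds in RPMI 1640 with 0.5% Albumax at 37 C, 5% CO2. Growth inhibition was scored as reduced luminescence.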
Potency is the fitted concentration of half-maximal effect; tags give direction and shape of the fitted curve.

Compound	Potency
CCNC(=O)CSc1nc2cc(OC)c(OC)cc2c(=O)n1CCC1=CCCCC1	inconclusive [inhibitor, partial curve]
c1ccc(-c2nnc3sc(CN4CCc5ccccc54)cn23)cc1	active: 10.4 µM
Cc1ccccc1NC(=O)Nc1ccc2c(c1)OCO2	inactive
CCCS(=O)(=O)c1ccc(COC(=O)c2ccc(NC(C)=O)cc2)cc1	inconclusive [inhibitor, partial curve]
CCOc1ccc2nc(N(CCCN(C)C)C(=O)c3ccc4c(c3)CCCC4)sc2c1	inconclusive [inhibitor, partial curve]
C=CCN(c1ccc(Cl)cc1)S(=O)(=O)c1cccc(C(=O)OCC(=O)N(C)C)c1	inconclusive [inhibitor, single point]
CCOc1ccc(N(C(=O)Cn2nnc3ccccc32)C(C(=O)NC(C)(C)CC)c2cccn2C)cc1 (stereo not drawn)	active: 13.1 µM
COc1cccc(CN2CCN(S(=O)(=O)c3ccc(NC(C)=O)cc3)CC2)c1OC	inconclusive [inhibitor, single point]
CCCCNC(=O)C1CCCN1C(=O)NC1CCCCC1 (stereo not drawn)	inconclusive [inhibitor, single point]
O=C(Nc1ccccc1N1CCOCC1)c1cccc(Oc2ccccc2)c1	inconclusive [inhibitor, single point]
C=CCN(CC=C)C(=O)c1cccc(OC2CCN(CC(C)(C)C)CC2)c1	inactive
CCCOC(=O)C1C2C=C[C@]3(CN(CCc4ccccc4)C(=O)[C@H]13)O2 (stereo partly drawn)	inconclusive [inhibitor, single point]
Cc1nn(Cc2ccc([N+](=O)[O-])cc2)c(=O)n1-c1c(F)cccc1F	inactive
O=C(NCc1ccccn1)c1ccc(S(=O)(=O)Nc2ccccc2F)cc1	inconclusive [inhibitor, full curve, poor fit]
COc1cccc(NC(=O)COC(=O)c2ccccc2C(=O)N(C)c2ccccc2)c1	inconclusive [inhibitor, single point]
OCCC1CN(Cc2ccccc2OC2CCCC2)CCN1Cc1ccsc1 (stereo not drawn)	inconclusive [inhibitor, partial curve]
OCCCCNc1cccc2ccccc12	inconclusive [inhibitor, single point]
C/C=C(\C)CN1CCCC(CO)(Cc2ccccc2)C1 (stereo not drawn)	inactive
CCc1ccc(N(CC(=O)NCc2ccc(F)cc2)C(=O)c2csnn2)cc1	inconclusive [inhibitor, single point]
COc1ccc(-c2nc(C)ncc2N=Nc2ccccc2)cc1	active: 9.28 µM
CC(C)(C)CN1CCNC[C@H]1Cc1ccc(O)cc1	inconclusive [inhibitor, single point]
COc1ccc(C/C(C)=N/NC(=O)c2ccncc2)cc1	inactive
O=C(Nc1ccc(S(=O)(=O)Nc2ccccc2)cc1)C1CC1	inactive

Compound	Potency
CCC/C(O)=C1\C(=O)CC(C)(C)CC1=NCc1ccccc1	inconclusive [inhibitor, single point]
CCCCCc1c(C)nc(Nc2ccccc2)[nH]c1=O	inconclusive [inhibitor, single point]
Cc1ccc(N(CCC#N)C(=O)COC(=O)C2CCN(c3ccc(C(F)(F)F)cn3)CC2)cc1	inconclusive [inhibitor, single point]
NS(=O)(=O)c1ccc(CCNC(=O)CNC(=O)Cc2ccccc2)cc1	inactive
COc1cccc(C2=CC(=O)C[C@H](c3ccc(F)cc3)C2)c1	active: 2.33 µM
O=C(Nc1cccc(N2C(=O)C3CCCCC3C2=O)c1)c1ccccc1 (stereo not drawn)	inactive
CCCCCN(C(=O)CCC(=O)OCC(=O)N1CCCC(C)C1)c1c(N)n(CCCC)c(=O)[nH]c1=O (stereo not drawn)	inactive
Cc1cccc(NC(=O)CSCC(=O)N2CCCc3ccccc32)c1	inactive
COc1ccc(CN2CCN(C(=O)c3ccc(S(=O)(=O)N4CCCCCC4)cc3)CC2)cc1F	active: 13.1 µM
CCN(CC)c1ccc(NC(=O)c2ccc(=O)[nH]c2)cc1S(=O)(=O)Nc1ccc(OC)cc1	inconclusive [inhibitor, single point]
Brc1ccccc1C1Nc2cccc3cccc(c23)N1	active: 13.1 µM
CCc1ccc(N=c2c([N+](=O)[O-])nn(-c3ccccc3)n2O)cc1	inconclusive [inhibitor, partial curve]
COc1cc(CC(=O)OCC(=O)Nc2ccc(S(=O)(=O)N3CCCC3)cc2)cc(OC)c1OC	inconclusive [inhibitor, partial curve]
CC(C)(C)C(=O)N1CCN(c2ccc([N+](=O)[O-])c(-n3nc(-c4ccccc4)c4ccccc4c3=O)c2)CC1	active: 5.22 µM
COCCCNC(=S)Nc1cc2oc3ccccc3c2cc1OC	inconclusive [inhibitor, single point]
CCCNC(=O)C(Cc1cccc(Cl)c1)NC(=O)c1ccc(C#N)cc1 (stereo not drawn)	inconclusive [inhibitor, single point]
Cc1ccc(-n2ncc3c2CCCC3NC(=O)c2ccoc2)cc1C (stereo not drawn)	inconclusive [inhibitor, partial curve, poor fit]
COc1cccc(C(c2c(N)[nH]c(=S)[nH]c2=O)c2c(N)[nH]c(=S)[nH]c2=O)c1	inconclusive [inhibitor, partial curve, poor fit]
CSc1ccc(/C=C/C(=O)OCC(=O)N2CCN(S(=O)(=O)c3ccc(C)cc3C)CC2)cc1	inconclusive [inhibitor, single point]
COC(=O)C1CCN(C(=O)COC(=O)c2cccc(NS(=O)(=O)c3ccccc3)c2)CC1	inconclusive [inhibitor, single point]
CCN1CCN(Cc2ccc(NC(=O)c3ccc(C)c(NC(=O)c4nccn4C)c3)cc2C(F)(F)F)CC1	inconclusive [inhibitor, single point]
CNS(=O)(=O)c1cccc(C(=O)OCC(=O)c2ccc3c(c2)OCCO3)c1	inconclusive [inhibitor, partial curve, poor fit]
CN1CCN(CCc2nc3cc(NC(=O)COc4ccc(Cl)cc4)ccc3n2C)CC1	inconclusive [inhibitor, partial curve]

Compound	Potency
O=C(CSc1nnc(C2CC2)n1-c1ccccc1)NCCc1ccc(F)cc1	inconclusive [inhibitor, partial curve, poor fit]
NC(=O)Nc1cccc(C(F)(F)F)c1	inactive
COCCCNC(=S)NNC(=S)Nc1cccc(Cl)c1	inconclusive [inhibitor, single point]
O=C(Nc1ccc(Cl)cc1C(=O)N1CCOCC1)c1cccc([N+](=O)[O-])c1	inactive
Cc1cc(NC(=O)CCC(=O)N(Cc2ccco2)C(C(=O)NCC2CCCO2)c2ccncc2)no1 (stereo not drawn)	inconclusive [inhibitor, full curve, poor fit]
Cc1ccc(C)c(N2CCN(C(=O)Cn3c(=O)oc4cc(S(=O)(=O)N5CCCC5)ccc43)CC2)c1	inconclusive [inhibitor, partial curve, poor fit]
Cc1cc(C)nc(NNS(=O)(=O)c2ccc(F)c(Cl)c2)n1	inconclusive [inhibitor, single point]
CCN(CC)C(=O)c1ccc2c(c1)C1C(Cl)C(Sc3ccccc3[N+](=O)[O-])CC1C(C(=O)O)N2 (stereo not drawn)	inconclusive [inhibitor, partial curve, poor fit]
CC(=O)Oc1c(C)c(OC(C)=O)c2c(c1C(C)=O)OC1CC(=O)C(C(C)=O)=C(O)C21C (stereo not drawn)	active: 8.28 µM
CCc1ccc(CN(C)Cc2nc(Cc3ccccc3)no2)nc1	inconclusive [inhibitor, partial curve]
CCOC(=O)Cc1csc(N/N=C/c2ccc(Cl)cc2)n1	inactive
C=CCOc1nc2c(c(=O)n(C)c(=O)n2C)n1Cc1c(Cl)cccc1Cl	inconclusive [inhibitor, single point]
CCOC(=O)C(CC)Sc1nnc(COc2ccc(C)cc2)n1-c1ccccc1 (stereo not drawn)	active: 13.1 µM
CCOc1ccc2oc(-c3ccccc3)c(C(=O)N3CCN(CCO)CC3)c2c1	inconclusive [inhibitor, single point]
COCCC(=O)N1CCC(Oc2ccc(C(=O)N3CCC[C@H]3CO)cc2)CC1	inactive
Cc1ccc(C(=O)Nc2cccc(C(F)(F)F)c2)cc1Nc1ccccn1	inconclusive [inhibitor, single point]
CC(=O)c1cccc(NC(=S)N2CCN(S(=O)(=O)c3ccccc3)CC2)c1	inconclusive [inhibitor, single point]
CCN1C(c2ccccc2)C(C)C(=O)C(C)C1c1ccccc1 (stereo not drawn)	active: 11.7 µM
CCOc1cc(CNC(C)(C)CO)cc(Br)c1OCc1ccc(Cl)cc1Cl	inconclusive [inhibitor, partial curve, poor fit]
COc1ccc(C(=O)NC=C2C(=O)OC(C)(C)OC2=O)cc1	inactive
COc1ccc(C(C)NC(=S)NCc2ccc(F)cc2)cc1 (stereo not drawn)	inconclusive [inhibitor, partial curve, poor fit]
Cc1ccc(S(=O)(=O)N2CCN(C(=O)C3Cc4ccccc4CN3C(=O)c3ccco3)CC2)cc1 (stereo not drawn)	inconclusive [inhibitor, full curve]
